From PubChem BioAssay AID686978 (National Center for Advancing Translational Sciences (NCATS), 2013)
Screen size: about 420,000 compounds; about 64,000 (15%) were called active. The inconclusive results got no clear call from the source; some entries with a clear call stand among them for comparison. Calls follow the shape of the dose curve; as a rule, active = well fitted inhibition curve with a large enough effect; inconclusive = small, poorly fitted or top-dose-only effect; inactive = flat fitted curve, though single readings scatter. Potencies of inconclusive entries are left out as doubtful fits.

Test: qHTS for Inhibitors of human tyrosyl-DNA phosphodiesterase 1 (TDP1): qHTS in cells in absence of CPT; also: nearly all actives have a fitted effect of over 55% in size
Details: DT40 Tdp1-/- hTDP1 cells, no CPT, ATP luminescence, 48 h; activity change, negative = growth inhibition: at 46.2 µM (top of the series) unless noted
Summary of the method: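 Stably hTDP1-transfected Tdp1-null chicken DT40 cells were treated with library compounds minus camptothecin and grown for at least 48 hr at 37 °C, after which cellular ATP was quantified by luminescence.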
% is scaled to controls: 0 for no effect and ±100 for the full control effect; potency is read from the fitted curve at half-maximal effect; tags tell the direction and shape of the fitted curve.

Compound	activity change, negative = growth inhibition	Potency
Cc1ccn2c(=O)c(C(=O)Nc3ccc(F)c(C(F)(F)F)c3)cnc2c1	inactive: -13.1%	–
O=C(CCCCCn1c(=S)[nH]c2ccc(N3CCOCC3)cc2c1=O)NCc1ccc(Cl)cc1	–	inconclusive [inhibitor, partial curve]
O=C1[C@H]2[C@@H](c3ccc(F)cc3)N3C(=O)N(c4ccccc4)C(=O)[C@@]3(Cc3ccc(Cl)cc3)[C@H]2C(=O)N1C1CCCCC1	–	inconclusive [inhibitor, single point]
Cc1oc(-c2ccccc2F)nc1CN1CCC(C(=O)NCCc2ccc(Cl)cc2)CC1	–	active: 16.4 µM
Cc1cccc(Cn2c(C)nc3c(N)c(C)c(C)cc32)c1	–	active: 16.4 µM
COc1ccc(C2=CC(c3cc(OC)c(OC)c(OC)c3)NC(=S)N2)cc1 (stereo unspecified)	–	inconclusive [inhibitor, single point]
Cn1c(CC(=O)Nc2ccc(Cl)c(Cl)c2)n[nH]c1=S	inactive: -17%	–
Cc1cccc(NC(=O)C(=O)NCC(c2cccnc2)N2CCc3ccccc32)c1C (stereo unspecified)	–	active: 23.1 µM
CCOc1ccc(-c2nonc2NC(=O)c2oc3ccc(Cl)cc3c2C)cc1	–	active: 0.92 µM
CC(C)(c1ccccc1)c1ccc(OCCN2CCCC2)cc1	–	inconclusive [inhibitor, single point]
COc1ccc(CCNC(=O)Cc2cc(OCc3ccccc3)c(OC)cc2[N+](=O)[O-])cc1OC	–	inconclusive [inhibitor, partial curve]
O=C(CSc1nc2ccccc2c(=O)n1Cc1ccco1)NCc1ccco1	–	inconclusive [inhibitor, single point]
COc1cc(/C=N/N2CCN(Cc3ccc(Cl)cc3)CC2)ccc1OC(C)=O	–	inconclusive [inhibitor, single point]
O=[N+]([O-])c1ccc2oc(-c3cccc(O)c3)nc2c1	–	inconclusive [inhibitor, single point]
CCOC(=O)c1c(CC(C)C)csc1NC(C)=O	inactive: -9.99%	–
COc1ccc(-c2nnn3c2nc(NCc2ccccc2)c2ccccc23)cc1	–	inactive
CC(C)(C)C(=O)NC1=NN(c2c(Cl)cc(Cl)cc2Cl)C(=O)C1	inactive: -8%	–
CN(C)/N=C/C=C1\CCC/C(=C/c2cccs2)C1=O	–	inconclusive [inhibitor, partial curve, poor fit]
CCN(CC)CC(O)c1ccc2ccc3ccc(O)cc3c2c1 (stereo unspecified)	–	inconclusive [inhibitor, single point]
CCOC(=O)[C@]12CCCC=C1N(Cc1cccc3ccccc13)C(=O)[C@H](CC(=O)NCC1CCCCC1)C2	–	active: 23.1 µM
COc1ccc(/C=C/C(=O)OCC(=O)NC2CCCCCCC2)cc1	–	inconclusive [inhibitor, partial curve]
NC(CCc1ccccc1)c1csc(Nc2nccc(C(F)(F)F)n2)n1 (stereo unspecified)	–	inconclusive [inhibitor, single point]
COC(=O)c1ccccc1NC(=O)CCCn1nc(C)c2sc3ccccc3c2c1=O	–	inconclusive [inhibitor, single point]
CCCCCCCCCCCCCCCCCCNc1ccn(C2OC(COP(=O)(O)OCC3OC(n4cc(F)c(=O)[nH]c4=O)CC3O)C(O)C2O)c(=O)n1 (stereo unspecified)	–	active: 0.0411 µM

Compound	activity change, negative = growth inhibition	Potency
CCCCNc1c(-c2ccc(OC)c(SC3CCCCC3)c2)nc2ccc(Cl)cn12	–	active: 23.1 µM
c1ccc2sc(Nc3nc4cc5c(cc4s3)OCO5)nc2c1	–	inconclusive [inhibitor, single point]
CCN(CC)CCn1c(=N)n(CC(O)COc2ccccc2)c2ccccc21 (stereo unspecified)	–	active: 18.4 µM
CCCc1cc(C(=O)OCC(=O)N(CCC)c2c(N)n(Cc3ccccc3)c(=O)[nH]c2=O)sc1C	–	inconclusive [inhibitor, single point]
Cc1cc(C)c(S(=O)(=O)NC2CCN(Cc3ccccc3)CC2)c(C)c1	–	inconclusive [inhibitor, single point]
CCCC[C@@H]1CNC(=S)N1CCC12CC3CC(CC(C3)C1)C2	–	active: 18.4 µM
CCS(=O)(=O)N1Cc2ccccc2CC1C(=O)Nc1ccc(NC(C)=O)cc1 (stereo unspecified)	inactive: -8.27%	–
CCOC(=O)c1sc(NC(=O)CCSC)nc1C	inconclusive: -30.2% [inhibitor]	–
CCO[C@H]1OC(C(=O)N2CCN(Cc3ccc4c(c3)OCO4)CC2)=C[C@@H](C)[C@@H]1CCCO	–	inconclusive [inhibitor, single point]
Cc1cccc2c(N=O)c(O)[nH]c12	–	inconclusive [inhibitor, single point]
CCOC(=O)Nc1ccc(N2CCOCC2)c(S(=O)(=O)Nc2ccc(Cl)cc2)c1	–	inconclusive [inhibitor, partial curve, poor fit]
COc1ccc([C@H]2C[C@H](O)[C@@H](n3cc(COC(=O)c4ccccc4)nn3)CN2CC2CCCCC2)cc1	–	active: 23.1 µM
COc1ccccc1-c1nc(NCc2cnc(C)cn2)c2ccccc2n1	–	inconclusive [inhibitor, partial curve]
COc1ccc(CC(NC(C)=O)C(=O)NC2CCN(c3c4c(nc5ncnn35)CCC4)CC2)cc1OC (stereo unspecified)	inactive: 0.194%	–
Oc1ccc(Cl)c(CN2CCN(c3ncc(Cc4ccccc4)cn3)CC2)c1	–	active: 18.4 µM
CCc1cccc(CC)c1NC(=O)CCS(=O)(=O)c1ccc(Br)cc1	–	inconclusive [inhibitor, single point]
Cc1ccccc1C(=O)N1CCN(CCNC(=O)C(=O)Nc2ccc(Br)cc2)CC1	–	inconclusive [inhibitor, single point]
CCOC(=O)C1CCN(C(=O)C2CCN(S(=O)(=O)c3cccc4nsnc34)CC2)CC1	inactive: -2.91%	–
CC(C)c1ccc(C(=O)N2CCCCC2c2cc(C(=O)Nc3ccncc3)no2)cc1 (stereo unspecified)	–	active: 16.4 µM
COc1ccc2[nH]cc(CCNC(=O)Nc3c(C)cccc3C)c2c1	–	inconclusive [inhibitor, single point]
COc1ccc(-c2nc(N/N=C(\C)c3ccc(O)cc3)c3ccccc3n2)cc1	–	active: 7.31 µM
Cc1ccc(NC(=O)CSc2ncccc2C(=O)Oc2ccccc2Cl)cc1Cl	–	inconclusive [inhibitor, single point]
O=C(O)c1cccc2c1C(=O)c1ccc(-c3ccc(F)cc3F)cc1S2(=O)=O	inactive: -3.44%	–
O=C(N/N=C/c1cn(CCOc2ccccc2)c2ccccc12)c1ccncc1	inactive: -6.9%	–

Compound	activity change, negative = growth inhibition	Potency
CC(CN(C)C)CN1c2ccccc2S(=O)(=O)c2ccccc21 (stereo unspecified)	inactive: -10.7%	–
Cc1ccc(-n2c(=O)c3sccc3n(CC(=O)NCC3CCCO3)c2=O)cc1F (stereo unspecified)	inactive: 0.827%	–
CCOC(=O)N1CCN(c2cc(=O)n(-c3cccc(Br)c3)c(=O)[nH]2)CC1	inactive: -13.1%	–
CC1(C(=O)Nc2cccc(OC(F)(F)F)c2)Cc2c(-c3cccc(C(N)=O)c3)ccnc2O1 (stereo unspecified)	–	active: 20.6 µM
C=CCn1c(=N)n(CC(=O)OCC)c2ccccc21	inactive: 13.8%	–
O=c1[nH]c(=O)n(C2OC(CO)C(O)C2O)cc1N1CCOCC1 (stereo unspecified)	inactive: -3.19%	–
COc1ccc(-n2c(SCC(=O)O)nc3sc4c(c3c2=O)CCCC4)cc1	inactive: 0.909%	–
Cc1nc(Nc2cccc(Cl)c2)c2oc3ccccc3c2n1	–	active: 20.6 µM
Cc1ccc(-c2cc(-c3n[nH]c(=S)n3C)c3ccccc3n2)cc1	–	inconclusive [inhibitor, single point]
CCc1ccccc1NC(=S)NCc1ccc2c(c1)OCO2	–	inconclusive [inhibitor, single point]
CCCc1cc2c(=O)c(-c3ccc4c(c3)OCCO4)coc2cc1OS(C)(=O)=O	–	inconclusive [inhibitor, single point]
CC(=O)c1ccc(N2CCN(C(=S)Nc3ccccc3F)CC2)cc1	–	active: 7.31 µM
COc1cc(C)ccc1OCCSc1nc2ccc(NC(=O)c3ccc4c(c3)OCO4)cc2s1	–	inconclusive [inhibitor, full curve, poor fit]
C=CCNC(=S)/N=c1/ccccn1C	inactive: 1.14%	–
Cc1nn(Cc2ccc(C(=O)Nc3ccc(C(=O)OC(C)C)cc3)o2)c(C)c1Cl	–	inconclusive [inhibitor, single point]
COc1cc(NC(=O)c2cc3c(CO)cnc(C)c3oc2=Nc2cccc(C(N)=O)c2)cc(OC)c1	–	inconclusive [inhibitor, full curve]
O=C1c2oc3ccccc3c(=O)c2C(c2ccccn2)N1Cc1ccccc1 (stereo unspecified)	–	inconclusive [inhibitor, single point]
Cc1cccc(-n2c(O)c(C=Nc3ccccc3-c3n[nH]c(=S)[nH]c3=O)c3ccccc3c2=O)n1	–	inconclusive [inhibitor, partial curve, poor fit]
Cc1ccc(-c2cc(C(=O)N3CCN(c4ncccn4)CC3)c3ccccc3n2)cc1	–	active: 16.4 µM
N#Cc1c(NCCN)nc(-c2ccco2)c2c1CCCC2	–	inconclusive [inhibitor, single point]
COc1cc(-c2nc(Cn3nnc(C(=O)Nc4ccccc4C)c3C)c(C)o2)cc(OC)c1OC	–	inconclusive [inhibitor, partial curve]
CC(N)c1csc(Nc2nncc3ccccc23)n1 (stereo unspecified)	–	inconclusive [inhibitor, single point]
COc1ccc(-c2cc(C(=O)OCC(=O)N3CCOCC3)c3ccccc3n2)cc1	–	inconclusive [inhibitor, single point]
